{"source": "the supplement of paper PMC8728848", "binders": {"B1": {"name": "PX14343A-bvu-539-29-539 (Bacteroides vulgatus) (protein)", "chain": "DSLTESSSNTFWQTPDDALMALASCYDALQSNQLYNSDQYSLGPLYMDCISDNGGHFNWSGWMEGYDMAMGIHTPSSSIIGSYWKDCYEVISRCNVLIANIDRVDMDASQKAIYQAEAKTIRALMYINLTMTYQDVPFLTAPLTIDEAECEKTDRAAIVAHVMTDLQDAAEVLPQNASSRGHITKGAALSLLGRVALYNEKWDDAIAAYKQVQGLGYSLDPSYAKLFTQSGETSPEIIFAVRYEGPGMSEGAAFNAHWNTPLEAMNGTIDLADAYYCKDGKPTTDTKIAELNGGGGLDVSKPNPAHFENRDPRLYSTLFVPGMLWNGKGGIDTSASNPYANVYGGAAASLSTVYVYKYFDPTDTSNSWDNGQDFYVVRYAEVLLSLAEAMVQKGGYVYSDVTALVNEVRQRADVNMPTVEEVEGTSLSKDELLEVIKHERRVELAFEGLRLFDLYRWKELDKAVANIENERTMYGLAYEARKFNGERDYVWPLPTAELDTNKKLVQHDLWK"}}, "test_in_all_cases": "glycan array binding signal (z-score within array); higher = stronger binding", "details_in_all_cases": "glycan notation: IUPAC condensed, linker removed", "key": {"Fuc(a1-3)GlcNAc": {"target": "Fuc(a1-3)GlcNAc", "in_short": "(§1)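 Glycan array binding is given as a within-array Z-score, which can be read as non-binding when negative. The arrays, 3228 of them, came from the Consortium for Functional Glycomics database and were retained only where the protein sequence was available. Z-scores were averaged across arrays of the same protein sequence at different concentrations or buffers and across linkers.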"}, "[1]": {"target": "Fuc(a1-3)[Gal(b1-4)]Glc6S", "in_short": "as §1"}, "[2]": {"target": "Fuc(a1-3)[Gal(b1-4)]GlcNAc", "in_short": "as §1"}, "[3]": {"target": "Fuc(a1-3)[Gal(b1-4)]GlcNAc(b1-2)Man", "in_short": "as §1"}, "[4]": {"target": "Fuc(a1-3)[Gal(b1-4)]GlcNAc(b1-2)Man(a1-3)[Fuc(a1-3)[Gal(b1-4)]GlcNAc(b1-2)Man(a1-6)]Man(b1-4)GlcNAc(b1-4)GlcNAc", "in_short": "as §1"}, "[5]": {"target": "Fuc(a1-3)[Gal(b1-4)]GlcNAc(b1-2)Man(a1-3)[Fuc(a1-3)[Gal(b1-4)]GlcNAc(b1-2)Man(a1-6)]Man(b1-4)GlcNAc(b1-4)[Fuc(a1-6)]GlcNAc", "in_short": "as §1"}, "[6]": {"target": "Fuc(a1-3)[Gal(b1-4)]GlcNAc(b1-3)Gal(b1-3)[Fuc(a1-4)]GlcNAc", "in_short": "as §1"}, "[7]": {"target": "Fuc(a1-3)[Gal(b1-4)]GlcNAc(b1-3)Gal(b1-4)[Fuc(a1-3)]GlcNAc", "in_short": "as §1"}, "[8]": {"target": "Fuc(a1-3)[Gal(b1-4)]GlcNAc(b1-3)Gal(b1-4)[Fuc(a1-3)]GlcNAc(b1-3)Gal(b1-4)[Fuc(a1-3)]GlcNAc", "in_short": "as §1"}, "[9]": {"target": "Fuc(a1-3)[Gal(b1-4)]GlcNAc(b1-3)GalNAc", "in_short": "as §1"}, "[10]": {"target": "Fuc(a1-3)[Gal(b1-4)]GlcNAc(b1-6)GalNAc", "in_short": "as §1"}, "[11]": {"target": "Fuc(a1-3)[Gal(b1-4)]GlcNAc(b1-6)[Gal(b1-3)GlcNAc(b1-3)]Gal(b1-4)Glc", "in_short": "as §1"}, "[12]": {"target": "Fuc(a1-3)[Gal(b1-4)]GlcNAc6S", "in_short": "as §1"}, "[13]": {"target": "Fuc(a1-3)[Gal3S(b1-4)]Glc", "in_short": "as §1"}, "[14]": {"target": "Fuc(a1-3)[Gal3S(b1-4)]GlcNAc", "in_short": "as §1"}, "[15]": {"target": "Fuc(a1-3)[Gal3S(b1-4)]GlcNAc6S", "in_short": "as §1"}, "[16]": {"target": "Fuc(a1-3)[GalNAc(b1-4)]GlcNAc", "in_short": "as §1"}, "[17]": {"target": "Fuc(a1-3)[GalNAc(b1-4)]GlcNAc6S", "in_short": "as §1"}, "Fuc(a1-4)GlcNAc": {"target": "Fuc(a1-4)GlcNAc", "in_short": "as §1"}, "Fuc(b1-3)GlcNAc": {"target": "Fuc(b1-3)GlcNAc", "in_short": "as §1"}, "Gal(a1-2)Gal": {"target": "Gal(a1-2)Gal", "in_short": "as §1"}, "Gal(a1-3)Gal": {"target": "Gal(a1-3)Gal", "in_short": "as §1"}, "Gal(a1-3)Gal(b1-3)GlcNAc": {"target": "Gal(a1-3)Gal(b1-3)GlcNAc", "in_short": "as §1"}, "[18]": {"target": "Gal(a1-3)Gal(b1-3)GlcNAc(b1-2)Man", "in_short": "as §1"}, "[19]": {"target": "Gal(a1-3)Gal(b1-3)GlcNAc(b1-2)Man(a1-3)[Gal(a1-3)Gal(b1-3)GlcNAc(b1-2)Man(a1-6)]Man(b1-4)GlcNAc(b1-4)GlcNAc", "in_short": "as §1"}, "[20]": {"target": "Gal(a1-3)Gal(b1-3)GlcNAc(b1-3)GalNAc", "in_short": "as §1"}, "[21]": {"target": "Gal(a1-3)Gal(b1-3)GlcNAc(b1-6)GalNAc", "in_short": "as §1"}, "[22]": {"target": "Gal(a1-3)Gal(b1-3)[Fuc(a1-4)]GlcNAc(b1-2)Man(a1-3)[Gal(a1-3)Gal(b1-3)[Fuc(a1-4)]GlcNAc(b1-2)Man(a1-6)]Man(b1-4)GlcNAc(b1-4)GlcNAc", "in_short": "as §1"}, "Gal(a1-3)Gal(b1-4)Glc": {"target": "Gal(a1-3)Gal(b1-4)Glc", "in_short": "as §1"}, "Gal(a1-3)Gal(b1-4)GlcNAc": {"target": "Gal(a1-3)Gal(b1-4)GlcNAc", "in_short": "as §1"}}, "note": "The other results are listed elsewhere or left out.", "data": [{"binder": "B1", "values": [{"measurement": "glycan array binding signal (z-score)", "setting": "Fuc(a1-3)GlcNAc", "result": -0.299}, {"measurement": "glycan array binding signal (z-score)", "setting": "[1]", "result": -0.281}, {"measurement": "glycan array binding signal (z-score)", "setting": "[2]", "result": -0.297}, {"measurement": "glycan array binding signal (z-score)", "setting": "[3]", "result": -0.188}, {"measurement": "glycan array binding signal (z-score)", "setting": "[4]", "result": 0.132}, {"measurement": "glycan array binding signal (z-score)", "setting": "[5]", "result": 0.575}, {"measurement": "glycan array binding signal (z-score)", "setting": "[6]", "result": 0.203}, {"measurement": "glycan array binding signal (z-score)", "setting": "[7]", "result": -0.107}, {"measurement": "glycan array binding signal (z-score)", "setting": "[8]", "result": 0.016}, {"measurement": "glycan array binding signal (z-score)", "setting": "[9]", "result": -0.175}, {"measurement": "glycan array binding signal (z-score)", "setting": "[10]", "result": -0.298}, {"measurement": "glycan array binding signal (z-score)", "setting": "[11]", "result": -0.318}, {"measurement": "glycan array binding signal (z-score)", "setting": "[12]", "result": 0.043}, {"measurement": "glycan array binding signal (z-score)", "setting": "[13]", "result": -0.229}, {"measurement": "glycan array binding signal (z-score)", "setting": "[14]", "result": -0.346}, {"measurement": "glycan array binding signal (z-score)", "setting": "[15]", "result": -0.338}, {"measurement": "glycan array binding signal (z-score)", "setting": "[16]", "result": 0.035}, {"measurement": "glycan array binding signal (z-score)", "setting": "[17]", "result": -0.245}, {"measurement": "glycan array binding signal (z-score)", "setting": "Fuc(a1-4)GlcNAc", "result": -0.448}, {"measurement": "glycan array binding signal (z-score)", "setting": "Fuc(b1-3)GlcNAc", "result": -0.503}, {"measurement": "glycan array binding signal (z-score)", "setting": "Gal(a1-2)Gal", "result": -0.198}, {"measurement": "glycan array binding signal (z-score)", "setting": "Gal(a1-3)Gal", "result": -0.126}, {"measurement": "glycan array binding signal (z-score)", "setting": "Gal(a1-3)Gal(b1-3)GlcNAc", "result": 0.018}, {"measurement": "glycan array binding signal (z-score)", "setting": "[18]", "result": -0.278}, {"measurement": "glycan array binding signal (z-score)", "setting": "[19]", "result": 0.106}, {"measurement": "glycan array binding signal (z-score)", "setting": "[20]", "result": -0.01}, {"measurement": "glycan array binding signal (z-score)", "setting": "[21]", "result": -0.397}, {"measurement": "glycan array binding signal (z-score)", "setting": "[22]", "result": -0.005}, {"measurement": "glycan array binding signal (z-score)", "setting": "Gal(a1-3)Gal(b1-4)Glc", "result": -0.306}, {"measurement": "glycan array binding signal (z-score)", "setting": "Gal(a1-3)Gal(b1-4)GlcNAc", "result": -0.412}]}]}
